B1: PhoQ; a variant is named by its letters at X, in order, P23837 (parent)
chain: MKKLLRLFFPLSLRVRFLLATAAVVLVLSLAYGMVALIGYSVSFDKTTFRLLRGESNLFYTLAKWENNKLHVELPENIDKQSPTMTLIYDENGQLLWAQRDVPWLMKMIQPDWLKSNGFHEIEADVNDTSLLLSGDHSIQQQLQEVREDDDDAEMTHSVAVNVYPATSRMPKLTIVVVDTIPVELKSSYMVWSWFIYVLSANLLLVIPLLWVAAWWSLRPIEALAKEVRELEEHNRELLNPATTRELTSLVRNLNRLLKSERERYDKYRTTLTDLTHSLKTPLXXLQXXLRSLRSEKMSVSDAEPVMLEQISRISQQIGYYLHRASMRGGTLLSRELHPVAPLLDNLTSALNKVYQRKGVNISLDISPEISFVGEQNDFVEVMGNVLDNACKYCLEFVEISARQTDEHLYIVVEDDGPGIPLSKREVIFDRGQRVDTLRPGQGVGLAVAREITEQYEGKIVAGESMLGGARMEVIFGRQHSAPKDE

The list shows a part of the results.

In the assay the parent is B1. Briefly: enrichment ratio after two sorts for PhoP signalling (ratio (wild type AVST 3.29)); higher = more functional. The conditions noted are these: with PhoP (E. coli).
Turning to ELNH, the enrichment ratio is ≤ 0.25.

For the variant ALQP, the enrichment ratio was ≤ 0.25.

Turning to TGHY, the enrichment ratio amounted to 3.61.

Consider NATK, for which the enrichment ratio is ≤ 0.25.

Consider TTRK, for which the enrichment ratio is ≤ 0.25.

Consider NHKG, for which the enrichment ratio is ≤ 0.25.

Regarding RGHS, the enrichment ratio was ≤ 0.25.

For EPAW, the enrichment ratio is ≤ 0.25.

As to LQER, the enrichment ratio is ≤ 0.25.

In the case of WIVW, the enrichment ratio was ≤ 0.25.

In the case of TQYL, the enrichment ratio worked out at 1.61.

On to QKDP, for which the enrichment ratio was ≤ 0.25.

Take WCYQ: the enrichment ratio was ≤ 0.25.

Consider DQQP, for which the enrichment ratio is ≤ 0.25.

As to LLCE, the enrichment ratio is ≤ 0.25.

For TIQN, the enrichment ratio was determined as 5.05.

Regarding SMPC, the enrichment ratio was ≤ 0.25.

Consider GTSY, for which the enrichment ratio was 0.487.

On to WWYF, for which the enrichment ratio was ≤ 0.25.

FIAS: the enrichment ratio was ≤ 0.25.

In the case of PHDM, the enrichment ratio is ≤ 0.25.

As for YHIV, the enrichment ratio is ≤ 0.25.

As for ESEQ, the enrichment ratio is ≤ 0.25.

On to LSVW, for which the enrichment ratio is ≤ 0.25.

In the case of IWKQ, the enrichment ratio is ≤ 0.25.

As for LFSP, the enrichment ratio is ≤ 0.25.

With RQLF, the enrichment ratio was ≤ 0.25.

In the case of PGFD, the enrichment ratio was ≤ 0.25.

With QDDN, the enrichment ratio was ≤ 0.25.

With SGLH, the enrichment ratio is 7.3.

As for RVDG, the enrichment ratio was ≤ 0.25.

As to DLCN, the enrichment ratio was ≤ 0.25.

FWCN: the enrichment ratio was ≤ 0.25.

HDFT: the enrichment ratio is ≤ 0.25.

Consider AAPV, for which the enrichment ratio turned out to be 0.52.

Consider ETGI, for which the enrichment ratio is ≤ 0.25.

For the variant MGLA, the enrichment ratio turned out to be 2.09.

On to HAAR, for which the enrichment ratio was ≤ 0.25.

Consider FQER, for which the enrichment ratio is ≤ 0.25.

As to FGEW, the enrichment ratio is ≤ 0.25.

Turning to RCSF, the enrichment ratio is ≤ 0.25.

Consider DICL, for which the enrichment ratio was ≤ 0.25.

Consider PGIP, for which the enrichment ratio is ≤ 0.25.

For FFHR, the enrichment ratio is ≤ 0.25.

On to WITM, for which the enrichment ratio was ≤ 0.25.

Regarding IFSK, the enrichment ratio was ≤ 0.25.

As for FCEK, the enrichment ratio was ≤ 0.25.

STGM: the enrichment ratio came to 4.2.

As for YAGH, the enrichment ratio was ≤ 0.25.

With TAMN, the enrichment ratio came to 59.7.

For GGAF, the enrichment ratio was ≤ 0.25.

For the variant MYVN, the enrichment ratio was ≤ 0.25.

On to FGQS, for which the enrichment ratio is ≤ 0.25.

Consider AAFW, for which the enrichment ratio is ≤ 0.25.

Consider HGMH, for which the enrichment ratio is ≤ 0.25.

As for SIRA, the enrichment ratio was ≤ 0.25.

Turning to DSGT, the enrichment ratio was ≤ 0.25.

For QATM, the enrichment ratio was ≤ 0.25.

Consider WYHW, for which the enrichment ratio is ≤ 0.25.

FSRT: the enrichment ratio is ≤ 0.25.

With QNDH, the enrichment ratio is ≤ 0.25.

As to LFYE, the enrichment ratio is ≤ 0.25.

On to TCPN, for which the enrichment ratio was ≤ 0.25.

Regarding WFHT, the enrichment ratio was ≤ 0.25.

With ASMA, the enrichment ratio was 2.9.

HPHY: the enrichment ratio is ≤ 0.25.

As for NQLM, the enrichment ratio came out at 6.38.

On to EASC, for which the enrichment ratio was ≤ 0.25.

For HRYW, the enrichment ratio is ≤ 0.25.

Turning to IYEP, the enrichment ratio is ≤ 0.25.

For AKQR, the enrichment ratio is ≤ 0.25.

WSIN: the enrichment ratio was ≤ 0.25.

For NPED, the enrichment ratio is ≤ 0.25.

For EVSN, the enrichment ratio is ≤ 0.25.

With DLHH, the enrichment ratio was ≤ 0.25.

Regarding CLFL, the enrichment ratio was ≤ 0.25.

In the case of APDW, the enrichment ratio is ≤ 0.25.

With VNMG, the enrichment ratio was ≤ 0.25.

On to FYAY, for which the enrichment ratio is ≤ 0.25.

As for ELQS, the enrichment ratio was ≤ 0.25.

Turning to FRMR, the enrichment ratio is ≤ 0.25.

Regarding IHEN, the enrichment ratio is ≤ 0.25.

For GDRE, the enrichment ratio is ≤ 0.25.

With VKEN, the enrichment ratio was ≤ 0.25.

ANLC: the enrichment ratio is 22.4.

For the variant MYAG, the enrichment ratio was ≤ 0.25.

Take TCMR: the enrichment ratio came out at 2.87.

For the variant VDQD, the enrichment ratio is ≤ 0.25.

IALR: the enrichment ratio is ≤ 0.25.

Regarding FPCC, the enrichment ratio was ≤ 0.25.

Consider FHSS, for which the enrichment ratio is ≤ 0.25.

Consider SCHH, for which the enrichment ratio was ≤ 0.25.

Turning to QEFP, the enrichment ratio was ≤ 0.25.

Take AYMM: the enrichment ratio is ≤ 0.25.

As to YTNP, the enrichment ratio is ≤ 0.25.

Take LVCC: the enrichment ratio is ≤ 0.25.

DLNE: the enrichment ratio was ≤ 0.25.

For the variant FTFY, the enrichment ratio is ≤ 0.25.

In the case of RNTN, the enrichment ratio is ≤ 0.25.

Turning to RKAR, the enrichment ratio is ≤ 0.25.

On to TMRL, for which the enrichment ratio was ≤ 0.25.

As for FMRK, the enrichment ratio is ≤ 0.25.

As to RWNV, the enrichment ratio was ≤ 0.25.

Regarding EPDW, the enrichment ratio was ≤ 0.25.

In the case of PFPL, the enrichment ratio was ≤ 0.25.

As for WRNI, the enrichment ratio is ≤ 0.25.

On to AFPM, for which the enrichment ratio is ≤ 0.25.

Consider PSVP, for which the enrichment ratio is ≤ 0.25.

Consider HGVH, for which the enrichment ratio is ≤ 0.25.

For the variant TCWC, the enrichment ratio turned out to be 8.98.

As to SQGK, the enrichment ratio is ≤ 0.25.

Take STQY: the enrichment ratio was 1.13.

On to FQPC, for which the enrichment ratio was ≤ 0.25.

With YRRG, the enrichment ratio was ≤ 0.25.

Take HTVF: the enrichment ratio is ≤ 0.25.

LNRM: the enrichment ratio was ≤ 0.25.

As to VIAN, the enrichment ratio was ≤ 0.25.

Regarding HVTI, the enrichment ratio was ≤ 0.25.

Take PAHT: the enrichment ratio was ≤ 0.25.

For LIAT, the enrichment ratio was ≤ 0.25.

In the case of HRPR, the enrichment ratio is ≤ 0.25.

As for HEST, the enrichment ratio is ≤ 0.25.

Consider NWDP, for which the enrichment ratio is ≤ 0.25.

As to VFTQ, the enrichment ratio is ≤ 0.25.

Regarding VTYR, the enrichment ratio is ≤ 0.25.

In the case of KLHQ, the enrichment ratio is ≤ 0.25.

Take MIWV: the enrichment ratio is ≤ 0.25.

Regarding MGGT, the enrichment ratio was determined as 9.95.

For QFQP, the enrichment ratio is ≤ 0.25.

Regarding PAGE, the enrichment ratio was ≤ 0.25.

On to WHIM, for which the enrichment ratio is ≤ 0.25.

FRFY: the enrichment ratio was ≤ 0.25.

On to CMYV, for which the enrichment ratio is ≤ 0.25.

Take WKRQ: the enrichment ratio was ≤ 0.25.

Turning to SFWS, the enrichment ratio was ≤ 0.25.

For FTFH, the enrichment ratio is ≤ 0.25.

Consider LNVV, for which the enrichment ratio is ≤ 0.25.

Take TQPV: the enrichment ratio is ≤ 0.25.

As to LCMQ, the enrichment ratio is ≤ 0.25.

As to EGHM, the enrichment ratio was ≤ 0.25.

As to SLHF, the enrichment ratio was ≤ 0.25.

In the case of HYAQ, the enrichment ratio was ≤ 0.25.

On to MTPY, for which the enrichment ratio was ≤ 0.25.

As to HFQI, the enrichment ratio was ≤ 0.25.

For PLMT, the enrichment ratio is ≤ 0.25.

As for VDYF, the enrichment ratio was ≤ 0.25.

SNIK: the enrichment ratio is ≤ 0.25.

As for WDKM, the enrichment ratio is ≤ 0.25.

Take MTQM: the enrichment ratio is ≤ 0.25.

For the variant YVNP, the enrichment ratio is ≤ 0.25.

Turning to TPQV, the enrichment ratio is ≤ 0.25.

As to MIWC, the enrichment ratio is ≤ 0.25.

Take RFMQ: the enrichment ratio is ≤ 0.25.

Turning to YWSP, the enrichment ratio was ≤ 0.25.

LWDD: the enrichment ratio was ≤ 0.25.

As for HNWV, the enrichment ratio is ≤ 0.25.

With VWHN, the enrichment ratio is ≤ 0.25.

On to QCFW, for which the enrichment ratio is ≤ 0.25.

On to RTHP, for which the enrichment ratio was ≤ 0.25.

Take VGVD: the enrichment ratio is ≤ 0.25.

As to QWWD, the enrichment ratio was ≤ 0.25.

Consider NSFF, for which the enrichment ratio was ≤ 0.25.

Take ASEG: the enrichment ratio is ≤ 0.25.

For the variant QELQ, the enrichment ratio was ≤ 0.25.

On to KQID, for which the enrichment ratio is ≤ 0.25.

With RREV, the enrichment ratio was ≤ 0.25.

Consider DYKC, for which the enrichment ratio is ≤ 0.25.

For the variant KDWR, the enrichment ratio is ≤ 0.25.

For the variant AFIM, the enrichment ratio was ≤ 0.25.

Regarding PYFD, the enrichment ratio is ≤ 0.25.

Turning to IMVD, the enrichment ratio is ≤ 0.25.

Turning to FDYQ, the enrichment ratio is ≤ 0.25.

YFID: the enrichment ratio was ≤ 0.25.

With IWLY, the enrichment ratio was ≤ 0.25.

Consider TPQA, for which the enrichment ratio is ≤ 0.25.

Regarding RVPC, the enrichment ratio is ≤ 0.25.

Consider SWAW, for which the enrichment ratio was ≤ 0.25.

Consider ASMN, for which the enrichment ratio turned out to be 19.6.

For RGFI, the enrichment ratio is ≤ 0.25.

Take EFAV: the enrichment ratio is ≤ 0.25.

As to SLGH, the enrichment ratio worked out at 0.692.

Consider HECF, for which the enrichment ratio was ≤ 0.25.

Regarding NDKT, the enrichment ratio is ≤ 0.25.

WAWH: the enrichment ratio is ≤ 0.25.

Take RTGP: the enrichment ratio is ≤ 0.25.

Turning to GKDW, the enrichment ratio is ≤ 0.25.

For HVQV, the enrichment ratio is ≤ 0.25.

With PITE, the enrichment ratio is ≤ 0.25.

For the variant LLQC, the enrichment ratio was ≤ 0.25.

Take ANNC: the enrichment ratio was ≤ 0.25.

Regarding VNRI, the enrichment ratio was ≤ 0.25.

As for KMCW, the enrichment ratio was ≤ 0.25.

Take KGLC: the enrichment ratio was ≤ 0.25.

For HMNY, the enrichment ratio is ≤ 0.25.

Regarding NRQW, the enrichment ratio is ≤ 0.25.

These data come from a collection of fitness landscapes (doi:10.1126/science.1257360).
